Results published in patent EP4768506A1, “MOLECULAR PROBES TARGETING GPC3 AND USE THEREOF” (Wuhan Raydif Biotechnology Co., Ltd., priority 2023, dated 2025).

Key:
[1] = tested on: Hep3B (GPC3-positive); parameters: species or system nude mice; conditions: mouse, in vivo
Procedure: The human-derived liver cancer cell line Hep3B (GPC3-positive) was cultured in complete MEM medium (containing 10% FBS and 1% penicillin-streptomycin). Cells were maintained in a cell culture incubator at 37°C with 5% CO2. Hep3B cells in the logarithmic growth phase were collected, routinely digested with trypsin, and then cell pellets were collected and counted. Subsequently, washing was performed twice with pre-cooled PBS, and cell pellets were collected by centrifugation. A cell resuspension solution was prepared at a volume ratio of PBS : Matrigel = 1:1. The cells were blown thoroughly and then inoculated subcutaneously near the armpit of the right forelimb of each mouse, with each mouse receiving 5 x 10^6 cells (in a volume of 100 µL per mouse). The mice were used for subsequent experiments when the diameter of tumor reached 8-10 mm. Hep3B tumor-bearing nude mice and the Hep3B liver orthotopic cancer model were intravenously injected via tail vein with ^68Ga-NOTA-aGPC3-scFv (3.7-5.55 MBq, 100-150 µCi). PET/CT scans were performed under isoflurane inhalation anesthesia at 1, 2, and 4 h post-injection. Each scan acquisition lasted approximately 15 min. After scanning, PET and CT images were reconstructed following attenuation correction. Regions of interest (ROI) were delineated using Amide software to calculate the uptake values (%ID/g).

[2] = Storage stability of the concentrated chelator-antibody conjugate solution; type: physicochemical; conditions: stored at 4°C
Procedure: Antibody aGPC3-Fab was purified via PD-10 desalting chromatography column. The purity of antibody aGPC3-Fab was determined by size exclusion chromatography (SEC-HPLC). 20 nmol of purified antibody aGPC3-Fab was taken and the pH was adjusted to 8.5-9.0 using Na2CO3 (0.1 M, pH 9.0). Then, p-SCN-Bn-NOTA (dissolved in a small volume of DMSO) was added at a molar ratio of 20-30 times relative to the antibody, then reacted overnight at 4°C in the dark to synthesize NOTA-aGPC3-Fab. The excess unreacted NOTA was removed by purification via PD-10 desalting chromatography column. The purified antibody was concentrated using an ultrafiltration centrifuge tube (Millipore 0.5 mL/3 Kd) under conditions of 4°C, 13,000 x g, for 30 min, and then stored in a refrigerator at 4°C. The concentrated antibody solution remained stable for at least 3 months when stored at 4°C. 50 nmol of aGPC3-scFv antibody was taken and the pH was adjusted to 8.5-9.0 using Na2CO3 (0.1 M, pH 9.0). Then, p-SCN-Bn-DOTA (dissolved in a small volume of DMSO) was added at a molar ratio of 20 times relative to the antibody, then reacted at 25°C in the dark for 4 h to synthesize DOTA-aGPC3-scFv. The excess unreacted DOTA was removed by purification via PD-10 desalting chromatography column. […]

[3] = tested on: PDX transplant tumor; parameters: species or system NSG mice; conditions: mouse, in vivo
Procedure: Experimental group Huh7 tumor-bearing nude mice, control group SK-HEP-1 tumor-bearing nude mice, and liver cancer PDX models were intravenously injected via tail vein with ^68Ga-NOTA-aGPC3-Fab (3.7-5.55 MBq, 100-150 µCi). PET/CT scans were performed under isoflurane inhalation anesthesia at 0.5, 1, 2, and 4 h post-injection. Each scan acquisition lasted approximately 15 min. After scanning, PET and CT images were reconstructed following attenuation correction. Regions of interest (ROI) were delineated using Amide software to calculate the uptake values (%ID/g). Collection of patient baseline data: the collection of all patient information and tumor samples was approved by the Clinical Ethics Committee of Union Hospital, Tongji Medical College, Huazhong University of Science and Technology. The inclusion criteria for sampling were preoperative suspicion of liver cancer and the assessed ability to obtain more than 200 mm^3 of tumor tissue, with informed consent obtained from the patients prior to surgery. Basic clinical information collected from patients included general patient information, clinical data, tumor markers, biochemical indicators, imaging examination data, and postoperative pathological data. […] The health status of the mice was monitored daily for 5 consecutive days postoperatively, with attention to signs of wound dehiscence or infection. […]

[4] = tested on: Huh7 (GPC3-positive); parameters: species or system Balb/c nude mice; conditions: mouse, in vivo
Procedure: All animal studies were conducted in accordance with the guidelines of the Laboratory Animal Use and Management Committee of Tongji Medical College, Huazhong University of Science and Technology. Female Balb/c nude mice (4-5 weeks old) were purchased from Beijing Huafukang Biological Technology Co. Ltd and housed under SPF conditions at the Experimental Animal Center of Tongji Medical College, Huazhong University of Science and Technology. Huh7 and SK-HEP-1 cells in the logarithmic growth phase were collected, routinely digested with trypsin, and then cell pellets were collected and counted. Subsequently, washing was performed twice with pre-cooled PBS, and cell pellets were collected by centrifugation. A cell resuspension solution was prepared at a volume ratio of PBS : Matrigel = 1:1. The cells were blown thoroughly and then inoculated subcutaneously near the armpit of the right forelimb of each mouse, with each mouse receiving 1 x 10^7 cells (in a volume of 125 µL per mouse). The mice were used for subsequent experiments when the diameter of tumor reached 8-10 mm. Experimental group Huh7 tumor-bearing nude mice, control group SK-HEP-1 tumor-bearing nude mice, and liver cancer PDX models were intravenously injected via tail vein with ^68Ga-NOTA-aGPC3-Fab (3.7-5.55 MBq, 100-150 µCi). PET/CT scans were performed under isoflurane inhalation anesthesia at 0.5, 1, 2, and 4 h post-injection. Each scan acquisition lasted approximately 15 min. After scanning, PET and CT images were reconstructed following attenuation correction. Regions of interest (ROI) were delineated using Amide software to calculate the uptake values (%ID/g).

B1: ^68Ga-NOTA-aGPC3-scFv: ^68Ga-labelled NOTA conjugate of the scFv targeting GPC3 (conjugate)
scFv: [about 100 residues not written out]EYDFKTGWMHYYYGMDVWGQGTTVTVSSGGGGSGGGGSGGGGSQSVLTQPPSVSGAPGQRVTISCTGSSSGYDVHWYQQLPGRAPKLLIYGSNNRPSGVPDRFSGSNSGTSASLAITGLQAEDEADYYCQSYDSSLNAIFGGGTKLTVLGHHHHHH
For B1, which “route of metabolism/clearance (accumulation in kidneys and bladder)” value (from here on “route of metabolism/clearance”) [1] is on record?
Its value is “primarily metabolized via the renal pathway”.

And the “blood half-life compared with ^68Ga-NOTA-aGPC3-Fab” value ([1]; sc)?
Its value is “shorter blood half-life”.

What about the tumor-to-blood pool ratio ([1]; sc) of the same molecule?
The tumor-to-blood pool ratio was 4.91 ± 1.84.

And the “tumor-to-blood pool ratio compared with ^68Ga-NOTA-aGPC3-Fab” value ([1]; sc)?
Its value is “significantly higher”.

What about the tumor-to-liver ratio ([1]; sc) of the same molecule?
Its tumor-to-liver ratio is 2.25 ± 0.78.

What about the “tumor-to-liver ratio compared with ^68Ga-NOTA-aGPC3-Fab” value ([1]; sc) of the same molecule?
The value was “significantly higher”.

What about the tumor-to-muscle ratio ([1]; sc) of the same molecule?
The tumor-to-muscle ratio was 8.92 ± 5.72.

What about the “tumor-to-muscle ratio compared with ^68Ga-NOTA-aGPC3-Fab” value ([1]; sc) of the same molecule?
The value was “slightly higher”.

B2: NOTA-aGPC3-Fab: aGPC3-Fab reacted with p-SCN-Bn-NOTA; unlabelled precursor of ^68Ga-NOTA-aGPC3-Fab (conjugate)
heavy: [about 100 residues not written out]EYDFKTGWMHYYYGMDVWGQGTTVTVSSASTKGPSVFPLAPSSKSTSGGTAALGCLVKDYFPEPVTVSWNSGALTSGVHTFPAVLQSSGLYSLSSVVTVPSSSLGTQTYICNVNHKPSNTKVDKKVEPKSCDKTHL
light: QSVLTQPPSVSGAPGQRVTISCTGSSSGYDVHWYQQLPGRAPKLLIYGSNNRPSGVPDRFSGSNSGTSASLAITGLQAEDEADYYCQSYDSSLNAIFGGGTKLTVLGQPKAAPSVTLFPPSSEELQANKATLVCLISDFYPGAVTVAWKADSSPVKAGVETTTPSKQSNNKYAASSYLSLTPEQWKSHRSYSCQVTHEGSTVEKTVAPTECS
Which “time the concentrated antibody solution remained stable” value [2] does the source give for B2 here?
The value was “at least 3 months”.

B3: ^68Ga-NOTA-aGPC3-Fab: ^68Ga-labelled NOTA conjugate of the Fab antibody targeting GPC3 (conjugate)
heavy: [about 100 residues not written out]EYDFKTGWMHYYYGMDVWGQGTTVTVSSASTKGPSVFPLAPSSKSTSGGTAALGCLVKDYFPEPVTVSWNSGALTSGVHTFPAVLQSSGLYSLSSVVTVPSSSLGTQTYICNVNHKPSNTKVDKKVEPKSCDKTHL
light: QSVLTQPPSVSGAPGQRVTISCTGSSSGYDVHWYQQLPGRAPKLLIYGSNNRPSGVPDRFSGSNSGTSASLAITGLQAEDEADYYCQSYDSSLNAIFGGGTKLTVLGQPKAAPSVTLFPPSSEELQANKATLVCLISDFYPGAVTVAWKADSSPVKAGVETTTPSKQSNNKYAASSYLSLTPEQWKSHRSYSCQVTHEGSTVEKTVAPTECS
For B3, which “route of metabolism/clearance” value [3] is on record?
Its value is “primarily metabolized via the renal pathway”.

What about the “route of metabolism/clearance” value [4] of the same molecule?
The value was “primarily metabolized via the renal pathway”.

And the tumor-to-heart ratio [4]?
Its tumor-to-heart ratio is 3.06.

And the tumor-to-liver ratio [4]?
Its tumor-to-liver ratio is 1.42.

And the tumor-to-muscle ratio [4]?
Its tumor-to-muscle ratio is 6.60.
